# Measured values from PMC4336329 (PLoS ONE, 2015).
# Hit rate of the full screen: of about 310,000 compounds, about 14,000 (4.5%) showed an effect of 50% or more. The effect is printed as a negative number. Some of the results follow.
# Molecular target: human ether-à-go-go-related gene (hERG) potassium channel (human, UniProt Q12809)
# Test: primary screen, population patch clamp on CHO cells stably expressing hERG
# 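Also: peak tail current of the secondary pulse compared with the same well before compound.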
# human ether-à-go-go-related gene (hERG) potassium channel, sequence (Q12809 whole entry, looked up): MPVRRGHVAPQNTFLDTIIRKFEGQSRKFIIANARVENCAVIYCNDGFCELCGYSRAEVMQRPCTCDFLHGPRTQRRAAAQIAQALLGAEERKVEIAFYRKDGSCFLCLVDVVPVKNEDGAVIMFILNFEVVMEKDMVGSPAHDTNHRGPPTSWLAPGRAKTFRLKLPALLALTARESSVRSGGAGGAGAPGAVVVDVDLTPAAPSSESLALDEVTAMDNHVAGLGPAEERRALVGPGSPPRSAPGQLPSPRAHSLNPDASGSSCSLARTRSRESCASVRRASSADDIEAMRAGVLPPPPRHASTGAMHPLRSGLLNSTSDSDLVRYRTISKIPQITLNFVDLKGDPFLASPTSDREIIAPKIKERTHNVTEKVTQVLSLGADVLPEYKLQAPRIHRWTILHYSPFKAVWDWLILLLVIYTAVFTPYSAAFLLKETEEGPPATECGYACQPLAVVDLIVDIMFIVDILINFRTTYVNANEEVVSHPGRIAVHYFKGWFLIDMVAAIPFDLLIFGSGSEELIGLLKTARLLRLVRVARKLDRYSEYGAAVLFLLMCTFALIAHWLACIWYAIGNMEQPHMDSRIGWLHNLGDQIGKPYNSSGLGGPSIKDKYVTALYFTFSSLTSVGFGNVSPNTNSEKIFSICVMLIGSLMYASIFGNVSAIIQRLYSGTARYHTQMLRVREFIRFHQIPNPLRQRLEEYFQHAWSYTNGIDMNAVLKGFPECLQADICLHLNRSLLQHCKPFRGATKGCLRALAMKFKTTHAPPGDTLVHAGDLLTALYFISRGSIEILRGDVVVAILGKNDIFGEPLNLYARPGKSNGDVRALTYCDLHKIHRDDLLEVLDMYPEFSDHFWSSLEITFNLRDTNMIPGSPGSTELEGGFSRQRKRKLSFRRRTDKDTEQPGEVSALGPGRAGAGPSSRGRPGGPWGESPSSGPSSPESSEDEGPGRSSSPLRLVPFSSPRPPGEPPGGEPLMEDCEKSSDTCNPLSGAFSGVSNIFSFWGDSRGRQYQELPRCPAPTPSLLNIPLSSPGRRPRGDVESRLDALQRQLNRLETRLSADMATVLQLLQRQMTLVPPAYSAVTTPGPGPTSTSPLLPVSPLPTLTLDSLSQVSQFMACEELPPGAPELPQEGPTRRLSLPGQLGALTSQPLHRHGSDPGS
row,SMILES,"hERG current change (%, negative = inhibition) at 10uM"
1,CCOC(=O)c1sc2nc3c(cc2c1N)COC(C)(CC)C3 (centres unmarked),-3.67%
2,CCCN(C(=O)CSCC(=O)Nc1ccc(OC)cc1)c1c(N)n(Cc2ccccc2)c(=O)[nH]c1=O,-8.78%
3,Cc1cc(=O)n(CC(=O)O)c2ccccc12,6.64%
4,O=C(Nc1nccs1)c1nc[nH]c1C(=O)N1CCc2ccccc2C1,-12.8%
5,O=C(O)c1cccc(Nc2ncnc3sccc23)c1,24.2%
6,CC(C)Oc1ccc(C(=O)N(Cc2ccco2)C2CCS(=O)(=O)C2)cc1 (centres unmarked),-6.56%
7,CC(C)Oc1cccc(C(=O)C2CCCN(C(=O)c3ccsc3)C2)c1 (centres unmarked),-26.8%
8,COCCN(C(=O)COC(=O)c1ccccc1Nc1ccccc1)c1c(N)n(Cc2ccccc2)c(=O)[nH]c1=O,-44.9%
9,O=C(CCN1CCN(c2ccccc2)CC1)N/N=C/c1ccccc1O,-16%
10,Cc1ccc(-c2nc3ccc([N+](=O)[O-])cc3[nH]2)cc1,-3.49%
11,C=C(Br)Cn1c(CC(C)C)nc2ccccc21,-2.46%
12,CCOC(=O)N1CCN(C(=O)C2CC(c3cc(OC)ccc3OC)=NO2)CC1 (centres unmarked),-1.52%
13,COC(=O)C1=CN(Cc2ccc(F)cc2)C=C(C(=O)OC)C1c1cc(OC)c(OC)c(OC)c1,-30.6%
14,CCOc1ccc(-n2c(N)c(-c3nc4ccccc4[nH]3)sc2=S)cc1,11.2%
15,CCOc1ccc(NC(=O)c2cn(-c3ccc(OCC)cc3)c(=O)c3cc(OC)c(OC)cc23)cc1,2.57%
16,Cc1cccc(C)c1NC(=S)N(CCN(C)C)C(C)c1cccnc1 (centres unmarked),-9.34%
17,COc1ccc(C(NC(N)=O)c2ccccc2)cc1 (centres unmarked),10.3%
18,Cc1oc(-c2ccccc2Cl)nc1CS(=O)CC(=O)NCc1ccco1 (centres unmarked),-11.1%
19,CCNc1nc(NC(C)(C)C)nc(N(C#N)CC)n1,-30.9%
20,CCCc1cc(=O)[nH]c(SCC(=O)c2c(N)n(C)c(=O)n(C)c2=O)n1,-2.36%

row,SMILES,"hERG current change (%, negative = inhibition) at 10uM"
1,O=C(N/N=C/c1cccs1)c1ccc2ccccc2c1,5.37%
2,CCNCCNc1ccc(Cl)cc1[N+](=O)[O-].Cl,-20.3%
3,NS(=O)(=O)c1ccc(NC(=O)CN2CCc3ccccc32)cc1,6.29%
4,Cl.c1ccc(Nc2nc(NCC3CCCO3)c3ccccc3n2)cc1 (centres unmarked),-31.2%
5,CCC(CC)C(=O)c1c[nH]c(C(=O)NCc2cccs2)c1,18.6%
6,O=C(C1=C(O)C(=O)N(CCN2CCOCC2)C1c1ccncc1)c1ccco1 (centres unmarked),0.392%
7,C[C@H](NS(=O)(=O)c1ccc(Cl)cc1)C(=O)OCC(=O)c1ccc[nH]1,-26.6%
8,N#CCC(=O)Nc1ccc(C(=O)OCc2ccccc2Oc2ccccc2)cc1,17.8%
9,O=C(Cc1ccccc1F)NCC(=O)Nc1ccccc1Br,20.3%
10,O=C(CC(Nc1ccc(Cl)cc1)C(=O)O)c1ccccc1 (centres unmarked),4.2%
11,Cc1ccc(C(C(=O)NC2CCCC2)N(C(=O)c2csnn2)c2ccccc2)o1 (centres unmarked),-2.7%
12,COc1ccc(N=C2SC(CC(=O)Nc3ccccc3)C(=O)N2Cc2ccco2)cc1 (centres unmarked),17%
13,O=C(CSc1nccn1-c1cccc(Cl)c1)Nc1ccc2c(c1)OCCO2,-44.6%
14,CN=C1c2cc3c(Br)c(OC)ccc3n2CCN1C.Cl,-66.9%
15,COc1ccc(OC)c2c1sc(=NC(=O)C(C)C)n2C,13.2%
16,CCOc1ccc(N=C2NC(=O)S/C2=C\c2ccc(OC)cc2)cc1,2.17%
17,O=C(CCC1CCCCC1)NCCS(=O)(=O)N1CCN(c2ccccc2F)CC1,14.1%
18,CC(C)C[C@H](NC(=O)OC(C)(C)C)c1nnc(SCC(=O)Nc2ccc(Br)cc2)o1,-16%
19,CSc1ccc(S(=O)(=O)NCC(=O)OC2CCOC2=O)cc1[N+](=O)[O-] (centres unmarked),-6.04%
20,O=C(CNc1ccc(Cl)cc1)c1ccc(Br)cc1,13.6%

row,SMILES,"hERG current change (%, negative = inhibition) at 10uM"
1,COc1cc(C(=O)NCCSc2ccccc2)cc(OC)c1OC,8.28%
2,CCN1CCN(CC(=O)Nc2sc3c(c2C#N)CCC3)CC1,-18.1%
3,Cc1ccc(-c2cc(C(F)F)n3ncc(C(=O)N4CCCCC4c4cccnc4)c3n2)cc1 (centres unmarked),-36.4%
4,Cc1ccc(C)n1NC(=O)c1ccc(Cl)cc1,-8.87%
5,CC(C)NC(=O)/C=C/C(=O)O,3.23%
6,CCn1c(SCC(=O)NC2CCCCC2)nc2ccccc2c1=O,-7.95%
7,CCC(=O)Nc1ccc2nc(C3CC3)n(Cc3ccc(C(C)(C)C)cc3)c(=O)c2c1,9.1%
8,CCN1C(=NCCc2ccccn2)N[C@@H](c2cccc(F)c2)C(C(=O)OC)=C1C,-56.7%
9,COC(=O)c1cc(S(=O)(=O)N(Cc2ccccc2)C(C)(C)C)c[nH]1,-7.09%
10,CCSc1nnc(NC(=O)/C=C/c2ccc3c(c2)OCO3)s1,30.2%
11,Cc1nc(NC(=O)c2ccc(Cl)cc2)nc2cc3c(cc12)OCO3,1.55%
12,Cc1nnsc1C(=O)NNC(=O)c1cccc2ccccc12,6.04%
13,Nn1c(-c2cccc(Br)c2)n[nH]c1=S,11%
14,CCOc1ccccc1Nc1ccc(C(=O)O)cc1N,-5.76%
15,Cn1nc(C(F)(F)F)cc1-c1ccc(S(N)(=O)=O)s1,1.59%
16,CCOC(=O)CSc1nc(C)c(C(C)=O)cc1C#N,-5.39%
17,CCCCn1c(=O)c(C(=O)Nc2ccccc2N)c(O)c2ccccc21,16.3%
18,CCC1CCCCN1CC(=O)c1ccc(OC(F)F)cc1 (centres unmarked),-77.7%
19,Cn1c(=O)c2c([nH]c(OCc3ccc(Cl)cc3Cl)[n+]2Cc2ccc(F)cc2)n(C)c1=O,11.6%
